In PubChem BioAssay AID624296 (National Center for Advancing Translational Sciences (NCATS), 2012):
In all, about 350,000 compounds went through this assay and about 9,900 (2.8%) were called active. The inconclusive results got no clear call from the source; some entries with a clear call stand among them for comparison. Calls come from the whole dose curve; as a rule, active = well fitted activation curve with a large enough effect; inconclusive = small, poorly fitted or top-dose-only effect; inactive = no such curve, though single readings can be large or run the other way. No potency is given beside an inconclusive call; the fits are too rough.

Assay: A quantitative high throughput screen for small molecules that induce DNA re-replication in MCF 10a normal breast cells. For activity, positive = re-replication: % of control where 0% means no effect. Note: nearly all actives have a fitted effect of over 50% in size.
Conditions: MCF 10A DNA re-replication, Hoechst nuclear intensity, 48 h; activity, positive = re-replication: at 46.1 µM (top of the series)
Potency is the fitted concentration of half-maximal effect; tags give direction and shape of the fitted curve.

For `COCCCn1c(C(=O)N2CCOCC2)cc2c(=O)n3cccc(C)c3nc21`, which “activity, positive = re-replication” value is on record?
The value was inactive: 15.3%.

Which Potency does the source give for `CC(C)(C)C1CCC(OCC(O)CN2CCN(c3ccccn3)CC2)CC1` (stereo not given) here?
The Potency was inconclusive [activator, single point].

For `O=C(Nc1cccc(Cl)c1)N1CCN2C(=O)c3ccccc3C12c1ccccc1` (stereo not given), which Potency is on record?
The Potency was inconclusive [activator, single point].

For `CCOc1ccccc1NC(=O)CCSc1nc2n[nH]c(C)c2c(=N)n1-c1ccccc1Cl`, which Potency is on record?
The Potency was active: 13 µM.

Which Potency does the source give for `Cc1c(Cl)cccc1NC(=O)CSc1ncnc2c1cnn2CCc1ccccc1` here?
The Potency was active: 10 µM.

With `Cc1ccnc2nc(C(=O)Nc3ccc4c(c3)OCO4)nn12` as the compound, how does the Potency read?
The Potency was inconclusive [activator, single point].

For `Cc1c(C)n(Cc2ccccc2)c2ccc(C(=O)NCCCN3CCOCC3)cc12`, which Potency is on record?
Its Potency is inconclusive [activator, full curve, poor fit].

Which Potency does the source give for `O=C(NC1CCCCC1)C(c1cccnc1)N(C(=O)c1csnn1)c1ccccc1F` (stereo not given) here?
Its Potency is inconclusive [activator, partial curve, poor fit].

For `CSC1=NNC(c2ccc(C(C)(C)C)cc2)=NN1`, which Potency is on record?
The Potency was inconclusive [activator, partial curve, poor fit].

For `NC(=O)NC(=O)CSc1nc2cc([N+](=O)[O-])ccc2n1-c1cccc(C(F)(F)F)c1`, which Potency is on record?
The Potency was inconclusive [activator, single point].

With `Cc1cccnc1NC(=O)CCc1nnc2ccc(N3CCC4(CC3)OCCO4)nn12` as the compound, how does the “activity, positive = re-replication” value read?
Its value is inactive: 0.71%.

Which “activity, positive = re-replication” value does the source give for `O=C(CNC(=S)N(CCCN1CCOCC1)Cc1cccs1)NC1CCCCC1` here?
Its value is inactive: 8.84%.

With `COc1ccc(O)c(/C=N/NC(=O)CCC(=O)Nc2ccc(F)cc2)c1` as the compound, how does the “activity, positive = re-replication” value read?
The value was inactive: 24.2%.

Which Potency does the source give for `COc1cc2c(cc1NC(=O)Nc1ccc(C)cc1)oc1ccccc12` here?
The Potency was inconclusive [activator, partial curve, poor fit].

Which “activity, positive = re-replication” value does the source give for `COc1ccc(N2CCN(C(=O)c3cccc4nc(C)oc34)CC2)cc1` here?
Its value is inactive: -0.615%.

Which “activity, positive = re-replication” value does the source give for `CC(C)CNC(=S)NC1CC2CCCC(C1)N2C1CCCCC1` (stereo not given) here?
Its value is inactive: -6.65%.

For `CC(C)(C)NC(=O)C(OC(=O)c1cccs1)c1ccc(F)cc1` (stereo not given), which Potency is on record?
The Potency was inconclusive [activator, partial curve, poor fit].

Which Potency does the source give for `CCOc1ccc(S(=O)(=O)N(CC)CC)cc1NC(=O)c1ccc(N2CCCC2=O)cc1` here?
Its Potency is inconclusive [activator, single point].

For `CCOc1ccc(C(=O)Nc2ccc(N3CCN(C)CC3)cc2)cc1Br`, which Potency is on record?
Its Potency is inconclusive [activator, single point].

Which Potency does the source give for `C[C@@H](NC(=O)c1nc[nH]c1C(=O)N[C@@H](Cc1ccccc1)C(=O)OCc1ccccc1)c1ccccc1` here?
Its Potency is inconclusive [activator, single point].

For `O=C(NCC12CC3CC(CC(C3)C1)C2)c1nn2c(c1Cl)NC(c1ccco1)CC2C(F)(F)F` (stereo not given), which Potency is on record?
Its Potency is inconclusive [activator, partial curve, poor fit].

With `CC(C)CCN(C(=O)c1ccncc1)c1c(N)n(Cc2ccccc2)c(=O)[nH]c1=O` as the compound, how does the “activity, positive = re-replication” value read?
The value was inactive: -0.966%.

With `Cc1cc2n(n1)C(c1ccccc1)CC(c1ccc(Br)cc1)=N2` (stereo not given) as the compound, how does the Potency read?
Its Potency is inconclusive [activator, single point].

For `O=C(OCC(=O)N1CCCC1)c1cc([N+](=O)[O-])ccc1Cl`, which “activity, positive = re-replication” value is on record?
The value was inactive: -33.1%.

For `Cc1noc(/C=C/N(C)C)c1S(=O)(=O)N1CCN(c2ccccc2)CC1`, which Potency is on record?
Its Potency is inconclusive [activator, single point].

For `O=C1c2ccc3c4c(ccc(c24)C(=O)N1c1ccc(O)cc1)C(=O)N(c1ccc(O)cc1)C3=O`, which Potency is on record?
Its Potency is inconclusive [activator, partial curve, poor fit].

With `Cc1c(Cl)cccc1NC(=S)NC1CCN(C(C)C)CC1` as the compound, how does the Potency read?
The Potency was inconclusive [activator, partial curve, poor fit].

Which Potency does the source give for `CCCCCC[n+]1c(-c2ccccc2)csc1Nc1ccccc1` here?
Its Potency is inconclusive [activator, partial curve].

For `Cc1c(C(=O)c2ccccc2)c2ccccn2c1CCC#N`, which “activity, positive = re-replication” value is on record?
The value was inactive: -3.74%.

For `CC(=O)c1c(OC(=O)c2ccccc2)c2ccccc2n1C`, which Potency is on record?
Its Potency is inconclusive [activator, single point].

With `CCSc1nnc(NC(=O)c2cccc(S(=O)(=O)N(C)c3ccc(C)cc3)c2)s1` as the compound, how does the Potency read?
The Potency was inconclusive [activator, partial curve, poor fit].

With `C[C@H](NC(=O)c1nc[nH]c1C(=O)NC(c1ccccc1)c1ccccc1)C(=O)OC(C)(C)C` as the compound, how does the “activity, positive = re-replication” value read?
Its value is inactive: 22.7%.

With `C/C(=N\Nc1ncnc2sc(C)c(C)c12)c1ccccn1` as the compound, how does the Potency read?
Its Potency is inconclusive [activator, partial curve, poor fit].

For `N#CNC(=Nc1cccc(F)c1)SCc1ccccc1`, which Potency is on record?
Its Potency is inconclusive [activator, partial curve, poor fit].

For `COc1ccc2cc3cc(C(=O)NCc4cccnc4)oc3nc2c1`, which Potency is on record?
Its Potency is inconclusive [activator, single point].

With `CN(C(=O)c1cccc(NC(=O)Cc2ccc(NC(=O)C3CCN(S(=O)(=O)c4cccc([N+](=O)[O-])c4)CC3)cc2)c1)C1CCC1` as the compound, how does the Potency read?
Its Potency is inconclusive [activator, full curve, poor fit].

Which “activity, positive = re-replication” value does the source give for `COc1ccc(N2C(=O)CC(NC34CC5CC(CC(C5)C3)C4)C2=O)c(OC)c1` (stereo not given) here?
Its value is inactive: -1.03%.

For `Cc1ccc[n+](CC(=O)N2CCCc3ccccc32)c1`, which “activity, positive = re-replication” value is on record?
Its value is inactive: -12.5%.

For `O=S(=O)(N/N=C\c1ccc(-c2ccccc2Cl)o1)c1ccccc1`, which Potency is on record?
The Potency was inconclusive [activator, single point].

For `CC1CCN(CCCCOc2cccc(C(C)C)c2)CC1`, which Potency is on record?
The Potency was inconclusive [activator, partial curve, poor fit].

With `CCCC1=C(C(=O)OCC)C(c2cc(Cl)cc(OC)c2OCc2ccccc2)NC(=O)N1` (stereo not given) as the compound, how does the Potency read?
Its Potency is inconclusive [activator, partial curve, poor fit].

With `Cc1cc(C)cc(Nc2ncc3c(n2)CCCC3=O)c1` as the compound, how does the “activity, positive = re-replication” value read?
Its value is inactive: -2.24%.

With `C=CCn1cc(/C=N/NC(=O)COc2cccc3cccnc23)c2ccccc21` as the compound, how does the Potency read?
Its Potency is inconclusive [activator, single point].

With `COc1ccccc1NC(=O)c1cc(-c2cc(OC)c(OC)c(OC)c2)nc2ccccc12` as the compound, how does the Potency read?
Its Potency is inconclusive [activator, partial curve, poor fit].

With `CCC1SC2=NC(C)=C(C(=O)OC)C(c3ccc(C)cc3)N2C1=O` (stereo not given) as the compound, how does the “activity, positive = re-replication” value read?
Its value is inactive: -1.72%.

For `COc1ccc(CC(=O)NC2CCCCCC2)c(OC)c1`, which “activity, positive = re-replication” value is on record?
The value was inactive: 5.85%.

For `Cc1cc(O)ccc1Nc1nc(-c2sc(N)nc2C)cs1`, which “activity, positive = re-replication” value is on record?
The value was inactive: -4.56%.

Which Potency does the source give for `COCCn1cnc2c1c(=O)n(Cc1ccc(Br)cc1)c(=O)n2Cc1ccccc1` here?
The Potency was inconclusive [activator, single point].

Which Potency does the source give for `Cn1c(=O)c2[nH]c(NCC3CCCO3)nc2n(-c2ccccc2)c1=O` (stereo not given) here?
Its Potency is inconclusive [activator, partial curve, poor fit].

Which Potency does the source give for `Cc1ccc(-c2nnc(N)s2)cc1` here?
The Potency was inconclusive [activator, partial curve, poor fit].

For `Cc1nonc1NC(=O)CSc1nc(C2CCCCC2)nc2ccccc12`, which Potency is on record?
Its Potency is inconclusive [activator, single point].

For `Cn1nc([N+](=O)[O-])nc1S(C)(=O)=O`, which Potency is on record?
The Potency was active: 5.8 µM.

With `O=C(O)c1cccc(NC(=S)NCc2ccccc2)c1` as the compound, how does the “activity, positive = re-replication” value read?
The value was inactive: 0.843%.

With `O=C(Cc1cccc(C(F)(F)F)c1)NCc1cccnc1` as the compound, how does the “activity, positive = re-replication” value read?
Its value is inactive: 8.33%.

With `CCCCC(=O)Nc1cccc(NC(=O)c2ccc(Br)cc2)c1` as the compound, how does the “activity, positive = re-replication” value read?
The value was inactive: -3.95%.

For `COc1ccc(CN(C)C(=O)c2cccc(NC(=O)CC3SC(N4CCCCC4)=NC3=O)c2)c(OC)c1` (stereo not given), which Potency is on record?
Its Potency is inconclusive [activator, single point].

Which “activity, positive = re-replication” value does the source give for `CC(=O)CC(=O)Nc1ccc2ccccc2c1` here?
Its value is inactive: -2.13%.

For `CCCOc1ccc(/C=N/Nc2ccccn2)cc1OC`, which Potency is on record?
Its Potency is inconclusive [activator, full curve, poor fit].

Which Potency does the source give for `Cc1ccc(OCC(=O)NNC(=O)C2CCC2)cc1C` here?
Its Potency is active: 3.26 µM.

For `COc1ccc2c(C)cc(SCC(=O)c3ccc4c(c3)OCO4)nc2c1`, which Potency is on record?
The Potency was inconclusive [activator, single point].

Which “activity, positive = re-replication” value does the source give for `C[C@H]1CC[C@]2(O[C@@H](CCO)C[C@H](O)[C@H]2O)O1` here?
The value was inactive: 4.26%.

Which “activity, positive = re-replication” value does the source give for `CCc1onc(C)c1C(=O)O` here?
The value was inactive: 0.546%.

Which Potency does the source give for `CSC1=NCCN1C(=O)c1c(F)cccc1Cl` here?
The Potency was inconclusive [activator, single point].

Which Potency does the source give for `Cc1ccc(S(=O)(=O)/N=C(/Nc2ccc([N+](=O)[O-])cc2[N+](=O)[O-])c2ccccc2)cc1` here?
The Potency was inconclusive [activator, single point].

With `CCCCn1c(=O)[nH]c(=O)c2c1nc(-c1ccccc1F)n2Cc1ccccc1OC` as the compound, how does the “activity, positive = re-replication” value read?
Its value is inactive: 18.6%.

Which Potency does the source give for `CCc1nnc(NC(=O)c2cc3ccccc3oc2=O)s1` here?
Its Potency is inconclusive [activator, partial curve, poor fit].

With `COc1ccc(-c2oc3ccc(-c4ccc(OC)nc4)cc3c2C#CC2(O)CCCCC2)cc1` as the compound, how does the Potency read?
The Potency was inconclusive [activator, partial curve, poor fit].

With `O=C(Nc1c(Cl)ccc2nsnc12)c1ccco1` as the compound, how does the “activity, positive = re-replication” value read?
The value was inactive: -4.02%.

For `Cc1ccc2[nH]c(=O)c(CN(CCO)Cc3nnnn3CCc3ccccc3)cc2c1`, which Potency is on record?
Its Potency is inconclusive [activator, full curve, poor fit].

Which Potency does the source give for `Nc1nc(-c2ccc(Br)cc2)cs1` here?
The Potency was inconclusive [activator, partial curve, poor fit].
